PubChem BioAssay AID651820 (National Center for Advancing Translational Sciences (NCATS), 2012)
Among all 340,000 compounds or so, about 12,000 (3.5%) were called active. Inconclusive means that the source gave no clear call. Such entries were picked first, then a sample of the others. The call rests on the fitted dose curve; in most records, active means well fitted inhibition curve with a large enough effect; inconclusive means small, poorly fitted or top-dose-only effect, or another doubt; inactive means no such curve, though single readings can be large or run the other way. Potencies of inconclusive entries are left out as doubtful fits.
Potency means the concentration at half of the fitted maximal effect; tags describe the fitted curve by direction and shape.

Experiment: qHTS Assay for Inhibitors of Hepatitis C Virus (HCV)
Details: Huh7.5.1 HCVcc-Cre (HCVcc is cell-culture hepatitis C virus) infection, luciferase reporter, 44 h; series mostly up to 41.8 µM
How it was run: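 Reporter virus HCVcc-Cre (~0.5 moi) infects cells exposed to compound; seeding density 1,000 cells/well with 4 h settling beforehand. Luminescence, 15 sec read, taken 44 h post-infection following a 15 min RT substrate incubation.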
In the case of `CCN(CC)S(=O)(=O)c1ccc(/C(O)=C2/C(=O)C(=O)N(CCOC)C2c2ccccc2)cc1` (stereo not given), the Potency is reported as inconclusive [inhibitor, single point]. For `CN(C)CCCn1c(N)c(C#N)c2nc(C#N)c(C#N)nc21`, the Potency was inconclusive [inhibitor, partial curve]. In the case of `Cc1cccc(NC(=O)c2ccc(CN3CCc4ccccc4C3)cc2)c1C`, the Potency is reported as inconclusive [inhibitor, partial curve]. For `Cc1ccc(C)c(NC(=O)CCC(=O)N/N=C/c2ccc[nH]2)c1`, the Potency was active: 3.55 µM. In the case of `CCCNC(=O)C(Cc1ccccc1C)NC(=O)c1ccc(C(F)(F)F)cc1` (stereo not given), the Potency is reported as “inactive”. With `Cc1n[nH]c(C)c1N1C(=O)c2cccc3cc(Br)cc(c23)C1=O` the Potency was active: 4.47 µM. In the case of `Cc1cccc(N2C(=O)CC(Sc3ncn[nH]3)C2=O)c1` (stereo not given), the Potency is reported as “inactive”. In the case of `Cc1ccc(CN2CCN(Cc3cccn3-c3ccccn3)CC2CCO)o1` (stereo not given), the Potency is reported as “inactive”. With `c1ccc(Nc2ncnc3sc4c(c23)CCC4)cc1` the Potency was inconclusive [inhibitor, full curve, poor fit]. With `C=C(C)C1CC=C(C)/C(=N/NC(=O)COc2cccc3ccccc23)C1` (stereo not given) the Potency was inconclusive [inhibitor, partial curve, poor fit]. With `C=CCn1c(SC/C=C/c2ccccc2)nnc1-c1sc(N)nc1C` the Potency was inconclusive [inhibitor, single point]. In the case of `O=C(CCCSc1ccccc1)Nc1nc(-c2ccco2)c(-c2ccco2)s1`, the Potency is reported as inconclusive [inhibitor, single point]. In the case of `COc1cc(SC)ccc1C(=O)Nc1ccccc1C#N`, the Potency is reported as inconclusive [inhibitor, single point]. With `O=C(CCNC(=O)c1ccco1)Nc1nc(-c2ccccc2)cs1` the Potency was inconclusive [inhibitor, single point]. With `COc1cc(CCC(=O)Nc2ccc(Br)c(C(F)(F)F)c2)cc(OC)c1OC` the Potency was inconclusive [inhibitor, partial curve]. For `COc1ccc(Cl)cc1C(=O)NNC(=S)NC(=O)c1cc(-c2ccccc2)nc2ccccc12`, the Potency was inconclusive [inhibitor, single point]. In the case of `CC1=NN(C(N)=S)C(=O)C1N=Nc1cccc(Cl)c1C` (stereo not given), the Potency is reported as “inactive”. With `O=c1oc(CCO)cc2ccc(C#Cc3ccsc3)cc12` the Potency was inconclusive [inhibitor, single point]. For `O=C(Cn1ncc2c3ccccc3n(Cc3ccccc3)c2c1=O)N1CCN(c2ncccn2)CC1`, the Potency was active: 10 µM. For `Cc1cc(OCC(O)CN)ccc1Cl` (stereo not given), the Potency was “inactive”. For `O=C(Cc1cccs1)N=Nc1c(O)[nH]c2ccc(Br)cc12`, the Potency was inconclusive [inhibitor, single point]. In the case of `C1CCN(CCCNC2C3CC4CC(C3)CC2C4)C1` (stereo not given), the Potency is reported as active: 2.51 µM. In the case of `Cc1ccc2c3c1C1(C(=O)N3C(C)(C)CC2C)C(C#N)=C(N)Oc2cc(O)ccc21` (stereo not given), the Potency is reported as inconclusive [inhibitor, single point]. For `O=C(C1CCC1)N1CCc2cc(S(=O)(=O)N3CCN(c4ccccn4)CC3)ccc21`, the Potency was inconclusive [inhibitor, single point]. For `CN(C)CCCN(C(=O)c1ccc(S(=O)(=O)N(C)C2CCCCC2)cc1)c1nc2ccc(F)cc2s1`, the Potency was “inactive”. For `CC(C)=CCN1CC[C@@]2(C)c3cc(O)ccc3C[C@@H]1C2C` (stereo not given in full), the Potency was inconclusive [inhibitor, partial curve]. With `COc1ccccc1NC(=O)Nc1ccccc1Br` the Potency was inconclusive [inhibitor, partial curve, poor fit]. With `O=C(N/C=C/c1ccco1)OCc1ccccc1` the Potency was “inactive”. In the case of `COc1ccc(OC)c(CCNC(=O)CCC(=O)N2CCOc3ccc(C)cc32)c1`, the Potency is reported as inconclusive [inhibitor, partial curve]. In the case of `Cc1sccc1/C=N/NC(=O)c1ccco1`, the Potency is reported as “inactive”. With `COc1cccc(NC(=O)c2oc3ccccc3c2NC(=O)C2CC2)c1` the Potency was inconclusive [inhibitor, full curve]. With `Cn1c(CCN2CCCCC2)nc2cc(NC(=O)COc3ccc(Cl)cc3)ccc21` the Potency was inconclusive [inhibitor, partial curve]. With `CCN(CCNC(=O)C1CCN(Cc2nc(-c3cccc(Cl)c3)oc2C)CC1)c1ccccc1` the Potency was inconclusive [inhibitor, partial curve]. For `Cc1cc(-n2c(C)cc(C(=O)CSc3ncnc4ccccc34)c2C)no1`, the Potency was active: 2.82 µM. With `COc1ccc(Br)cc1-c1noc(-c2ccccc2)n1` the Potency was “inactive”. For `CCN(CC(=O)Nc1ccc(NC(C)=O)cc1)C(=O)c1ccc2c(c1)S(=O)(=O)N=C1CCCCCN12`, the Potency was “inactive”. For `O=C(Nc1c(F)cc(F)cc1Br)c1cc2nc(C(F)F)cc(C(F)F)n2n1`, the Potency was inconclusive [inhibitor, single point]. In the case of `Cc1cnc(CN(C)C(=O)c2ccc3oc(Cc4ccc(Cl)cc4)nc3c2)[nH]1`, the Potency is reported as inconclusive [inhibitor, partial curve]. With `COc1ccc(S(=O)(=O)N(Cc2cccnc2)Cc2cc3ccccc3[nH]c2=O)cc1` the Potency was “inactive”. For `CCOC(=O)c1ccc(N=c2sc(C(=O)OC)cc(=O)n2Cc2ccco2)cc1`, the Potency was active: 22.4 µM. With `COc1ccc(C(=O)Cn2nnc(-c3ccc(N4CCOCC4)cc3)n2)cc1OC` the Potency was inconclusive [inhibitor, partial curve]. With `O=S1(=O)CC/C(=N\Nc2ccc(F)cc2)c2ccsc21` the Potency was inconclusive [inhibitor, single point]. For `Cn1c(=O)c2c(ncn2CC(=O)Nc2nc(-c3ccccc3Cl)cs2)n(C)c1=O`, the Potency was inconclusive [inhibitor, single point]. With `O=C(CCN1CCOCC1)Nc1cc(C(=O)Nc2ccc(Cl)cc2)ccc1N1CC2CC(C1)c1cccc(=O)n1C2` (stereo not given) the Potency was inconclusive [inhibitor, partial curve]. With `Cc1ccc(NC(=O)CCn2ccc([N+](=O)[O-])n2)nc1` the Potency was “inactive”. In the case of `Cc1noc2ncnc(Sc3ccc(Cl)cc3)c12`, the Potency is reported as inconclusive [inhibitor, single point]. With `Cc1ccc(CNC(=O)c2ccc(N(C)S(=O)(=O)c3ccccc3)cc2)cc1` the Potency was inconclusive [inhibitor, single point]. In the case of `C(=N\Nc1ncnc2ccccc12)/c1ccccc1`, the Potency is reported as inconclusive [inhibitor, single point]. In the case of `CC(=O)N1CCN(CC(=O)Nc2c(Cl)ccc(C)c2Cl)CC1`, the Potency is reported as “inactive”. With `CCCCC1CCC(C(=O)N(CC(C)C)c2c(N)n(CCCC)c(=O)[nH]c2=O)CC1` (stereo not given) the Potency was inconclusive [inhibitor, single point]. With `O=C(COC(=O)c1ccc(O)cc1O)N=c1sccn1Cc1ccccc1Cl` the Potency was active: 7.94 µM. With `c1ccc(-n2cnc3cc(NCc4ccccn4)ccc32)cc1` the Potency was inconclusive [inhibitor, single point]. For `CC(NC(=O)CCSc1nc(-c2ccc3c(c2)OCO3)cc(C(F)(F)F)n1)c1ccccc1` (stereo not given), the Potency was inconclusive [inhibitor, full curve]. In the case of `COc1ccc2cc(C(=O)N3CCN(Cc4ccc5c(c4)OCO5)CC3)[nH]c2c1`, the Potency is reported as active: 10 µM. In the case of `COc1ccccc1-n1c(/C=C/c2ccc(O)cc2)nc2ccccc2c1=O`, the Potency is reported as inconclusive [inhibitor, partial curve]. In the case of `CCN(Cc1ccccc1)C(=O)c1nn(-c2ccc(OC)cc2)c(=O)c2c1c1ccccc1n2C`, the Potency is reported as inconclusive [inhibitor, partial curve]. In the case of `CSc1nc2sc3c(c2c2nnnn12)CCCC3`, the Potency is reported as inconclusive [inhibitor, single point]. In the case of `O=C(N/N=C/c1cn(-c2cccs2)nc1-c1ccccc1)c1ccccc1Br`, the Potency is reported as active: 7.08 µM. For `O=C(Nc1cccc(S(=O)(=O)N2CCOCC2)c1)C12CC3CC(CC(C3)C1)C2`, the Potency was inconclusive [inhibitor, single point]. For `Cc1ccc(C(=O)N2CCN(Cc3nc4sc5c(c4c(=O)[nH]3)CCCC5)CC2)cc1`, the Potency was inconclusive [inhibitor, partial curve]. For `O=C(N/N=C/c1ccc([N+](=O)[O-])o1)C1CCCC1`, the Potency was inconclusive [inhibitor, single point]. For `COC(=O)C1=C(CS(=O)(=O)c2ccc(Cl)cc2)NC(=O)NC1c1ccc(O)cc1` (stereo not given), the Potency was “inactive”. For `O=C(O)CCCCCN1C(=O)/C(=C/c2ccncc2)SC1=S`, the Potency was “inactive”. For `COc1ccc(CC(C)N2CCN(Cc3ccccc3)CC2)c(OC)c1` (stereo not given), the Potency was inconclusive [inhibitor, single point]. With `NC(=O)c1ccc(NC(=O)COC(=O)c2c3c(nc4ccccc24)/C(=C\c2cccs2)CCC3)cc1` the Potency was inconclusive [inhibitor, full curve]. For `COc1cc2sc3cc(NCc4ccc(C)o4)ccc3c(=O)c2cc1OC`, the Potency was active: 3.55 µM. With `C=CCN(C(=O)C1CSC2(C)CCC(=O)N12)c1nc(-c2ccccc2)cs1` (stereo not given) the Potency was inconclusive [inhibitor, single point]. In the case of `CCN(C(=O)CSc1ncccc1C(=O)Oc1cccc([N+](=O)[O-])c1)c1cccc(C)c1`, the Potency is reported as “inactive”. With `COc1ccc(CCNC(=O)c2cc(S(=O)(=O)N3CCCCCC3)ccc2OC)cc1OC` the Potency was inconclusive [inhibitor, single point]. With `Cc1ccc(S(=O)(=O)N(CC(=O)N/N=C\c2cccs2)c2cccc3cccnc23)cc1` the Potency was inconclusive [inhibitor, single point].
